# Counter-ions that a name gives are not always drawn. This is one part of the list. Many values rest on one well or one pass, so single values are uncertain.
# Test system: SKNBE
# Experiment: area under viability curve (10 nM-1 µM), viability relative to solvent or trametinib-only control (AUC (arbitrary, % viability x concentration range)); higher = less growth inhibition (more viable cells)
# Settings: 72 h compound exposure (96 h after seeding) h; trametinib co-treatment 0 µM
# Method: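 Four neuroblastoma cell lines (KCNR, SKNBE, SJNB8, SKNAS) were seeded in 384-well plates. At 24 h, 1 µM trametinib or DMSO was added, followed by library compounds at 10 nM, 100 nM and 1 µM. Viability was read by MTT at 96 h and normalised to solvent-treated cells (DMSO arm) or to trametinib-only cells (trametinib arm). The area under the 3-point viability curve was computed in GraphPad Prism; units are as given (approx. 100000 = no effect).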
# 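Also: KCNR is a neuroblastoma cell line carrying an ALK mutation, in this DMSO arm without trametinib, viability was normalised to solvent-treated cells.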
row,SMILES,area under viability curve
1,CC[C@@]1([C@H]2O[C@H]([C@H]3O[C@@](O)(CO)[C@H](C)C[C@@H]3C)C[C@H]2C)CC[C@H]([C@@]2(C)CC[C@]3(C[C@H](O)[C@@H](C)[C@@H]([C@H](C)[C@H](OC)[C@@H](C)C(=O)O)O3)O2)O1 [Monensin sodium],35400
2,C[C@]12CC[C@@H]3c4ccc(OC(=O)N(CCCl)CCCl)cc4CC[C@H]3[C@@H]1CC[C@@H]2OP(=O)(O)O [Estramustine phosphate sodium],82300
3,C=C1C[C@@H]2[C@H](CC[C@]3(C)C(=O)CC[C@@H]23)[C@@]2(C)C=CC(=O)C=C12 [Exemestane],106000
4,O=C(O)c1nn(Cc2ccc(Cl)cc2Cl)c2ccccc12 [Lonidamine],108000
5,N[C@@H]1C[C@H]1c1ccccc1.N[C@H]1C[C@@H]1c1ccccc1 [Tranylcypromine hemisulfate],108000
6,C[C@]12CCC(=O)C(O)=C1CC[C@@H]1[C@@H]2CC[C@]2(C)C(=O)CC[C@@H]12 [Formestane],96100
7,CCC(=O)CCCCC[C@@H]1NC(=O)[C@H]2CCCCN2C(=O)[C@H]([C@@H](C)CC)NC(=O)[C@H](Cc2cn(OC)c3ccccc23)NC1=O [Apicidin],75800
8,Cc1ncc(CNC(=O)N(CCCl)N=O)c(N)n1 [Nimustine HCl],125000
9,CC[C@H](Nc1nc(NCc2cnc(C)cc2C)c2ncn(C(C)C)c2n1)[C@@H](C)O [Fadraciclib],89000
10,N[C@@H](Cc1ccc(N(CCCl)CCCl)cc1)C(=O)O [Melphalan],118000
11,CC(=O)Oc1ccc(/C=C/c2cc(OC(C)=O)cc(OC(C)=O)c2)cc1 [Triacetylresveratrol],93900
12,N.N.[Cl][Pt][Cl] [Cisplatin],112000

# Same assay, conditions: 72 h compound exposure (96 h after seeding) h; trametinib co-treatment 1 µM
row,SMILES,area under viability curve
1,CC[C@@]1([C@H]2O[C@H]([C@H]3O[C@@](O)(CO)[C@H](C)C[C@@H]3C)C[C@H]2C)CC[C@H]([C@@]2(C)CC[C@]3(C[C@H](O)[C@@H](C)[C@@H]([C@H](C)[C@H](OC)[C@@H](C)C(=O)O)O3)O2)O1 [Monensin sodium],18800
2,C[C@]12CC[C@@H]3c4ccc(OC(=O)N(CCCl)CCCl)cc4CC[C@H]3[C@@H]1CC[C@@H]2OP(=O)(O)O [Estramustine phosphate sodium],84200
3,C=C1C[C@@H]2[C@H](CC[C@]3(C)C(=O)CC[C@@H]23)[C@@]2(C)C=CC(=O)C=C12 [Exemestane],95900
4,O=C(O)c1nn(Cc2ccc(Cl)cc2Cl)c2ccccc12 [Lonidamine],95500
5,N[C@@H]1C[C@H]1c1ccccc1.N[C@H]1C[C@@H]1c1ccccc1 [Tranylcypromine hemisulfate],105000
6,C[C@]12CCC(=O)C(O)=C1CC[C@@H]1[C@@H]2CC[C@]2(C)C(=O)CC[C@@H]12 [Formestane],104000
7,CCC(=O)CCCCC[C@@H]1NC(=O)[C@H]2CCCCN2C(=O)[C@H]([C@@H](C)CC)NC(=O)[C@H](Cc2cn(OC)c3ccccc23)NC1=O [Apicidin],49200
8,Cc1ncc(CNC(=O)N(CCCl)N=O)c(N)n1 [Nimustine HCl],110000
9,CC[C@H](Nc1nc(NCc2cnc(C)cc2C)c2ncn(C(C)C)c2n1)[C@@H](C)O [Fadraciclib],72200
10,N[C@@H](Cc1ccc(N(CCCl)CCCl)cc1)C(=O)O [Melphalan],107000
11,CC(=O)Oc1ccc(/C=C/c2cc(OC(C)=O)cc(OC(C)=O)c2)cc1 [Triacetylresveratrol],112000
12,N.N.[Cl][Pt][Cl] [Cisplatin],105000

# — the supplement of paper PMC9990464
